In general, EC50 refers to the concentration that produces a half-maximal response. As a reminder, the Kd is the constant that tells how readily two partners part at equilibrium. One may read the koff as a measure of how fast the partners let go of each other. In general, kon refers to a measure of how fast the partners come together.

Consider ten molecules from patent US20240124575A1 (SIMCERE ZAIMING PHARMACEUTICAL, published 2024).

Where two headings read alike, the source gives them in different places.

For experiment [1], the target named is T1, monkey CD33 on HEK293T-monkey CD33 cells (monkey).
T1 construct: whole, on cells
Nature of the experiment: FACS on HEK293T-monkey CD33 cells.

Experiment [2] concerns the target T2, monkey CD33 protein (monkey).
T2 construct: The printed catalogue numbers for murine and monkey CD33 may be interchanged; also called monkey CD33-His protein
Nature of the experiment: ELISA, coated monkey CD33, antibody 1 nM. A general note: In an ELISA, binding on a coated surface is turned into a signal by an enzyme label.

Experiment [3] concerns the target T2, monkey CD33 protein. Nature of the experiment: ELISA, coated monkey CD33, antibody 10 nM.
In experiment [4] the target is T2, monkey CD33 protein. Nature of the experiment: ELISA, coated monkey CD33, antibody 0.1 nM.
In experiment [5] the target is T2, monkey CD33 protein. Description: ELISA, coated monkey CD33, antibody 100 nM.
Experiment [6] deals with T2, monkey CD33 protein. Nature of the experiment: ELISA, coated monkey CD33, antibody 0.01 nM.
Experiment [7] has as its target T2, monkey CD33 protein. Nature of the experiment: ELISA, coated monkey CD33, antibody 0.001 nM.
The target of experiment [8] is T2, monkey CD33 protein. Description: ELISA, coated monkey CD33, antibody 0.0001 nM.
Another experiment deals with T3, human CD33-His (human, UniProt P20138 18-259).
T3 construct: range 18-259; Bought protein; also called human CD33-his protein; hCD33-his; not shown: His tag
Description: SPR (Biacore), antibody captured on Protein A chip, human CD33-his as analyte. A general note: Surface plasmon resonance follows binding to a sensor surface in real time, without labels.

For experiment [9], the target named is T2, monkey CD33 protein. Description: SPR (Biacore), antibody captured on Protein A chip, monkey CD33 protein as analyte.
Another experiment has as its target T4, murine CD33-His protein (murine, UniProt Q63994 18-240, limits assumed).
T4 construct: also called murine CD33 protein
T4 sequence (looked up): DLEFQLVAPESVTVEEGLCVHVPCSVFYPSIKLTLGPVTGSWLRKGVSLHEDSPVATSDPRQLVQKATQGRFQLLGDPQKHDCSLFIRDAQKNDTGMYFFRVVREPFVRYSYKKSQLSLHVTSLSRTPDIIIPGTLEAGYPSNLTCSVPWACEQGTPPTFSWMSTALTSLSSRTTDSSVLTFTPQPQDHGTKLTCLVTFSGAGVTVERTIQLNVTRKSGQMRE
Description: ELISA on coated murine CD33-his.

A further experiment concerns the target T5, human CD33-V-his (human, UniProt P20138 18-144).
T5 construct: expressed in HEK293E; also called hCD33-V-his; human CD33 protein V-domain; not shown: His tag
Description: ELISA on coated human CD33-V-his.

Experiment [10] deals with T1, monkey CD33 on HEK293T-monkey CD33 cells. Nature of the experiment: FACS on HEK293T-monkey CD33 cells. The source holds these as a separate data set.
Experiment [11] has as its target T6, murine CD33 protein (murine, UniProt Q63994 18-240, limits assumed).
T6 construct: The printed catalogue numbers for murine and monkey CD33 may be interchanged; also called murine CD33-His protein
T6 sequence (looked up): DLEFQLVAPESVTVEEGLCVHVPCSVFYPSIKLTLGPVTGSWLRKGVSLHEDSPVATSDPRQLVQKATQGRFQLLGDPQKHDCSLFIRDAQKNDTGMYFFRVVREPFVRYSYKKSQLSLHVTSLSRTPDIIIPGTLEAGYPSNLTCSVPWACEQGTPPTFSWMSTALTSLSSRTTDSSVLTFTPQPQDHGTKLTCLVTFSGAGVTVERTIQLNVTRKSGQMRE
Nature of the experiment: ELISA, coated murine CD33, antibody 1 nM.

For experiment [12], the target named is T2, monkey CD33 protein. Description: ELISA, coated monkey CD33, antibody 1 nM. This is another data set of the same source.
For experiment [13], the target named is T6, murine CD33 protein. Nature of the experiment: ELISA, coated murine CD33, antibody 10 nM.
The target of experiment [14] is T2, monkey CD33 protein. Nature of the experiment: ELISA, coated monkey CD33, antibody 10 nM. The source holds these as a separate data set.
Experiment [15] concerns the target T6, murine CD33 protein. Nature of the experiment: ELISA, coated murine CD33, antibody 0.1 nM.
The target in experiment [16] is T6, murine CD33 protein. Nature of the experiment: ELISA, coated murine CD33, antibody 100 nM.
For experiment [17], the target named is T2, monkey CD33 protein. Nature of the experiment: ELISA, coated monkey CD33, antibody 0.1 nM. The source holds these as a separate data set.
In experiment [18] the target is T2, monkey CD33 protein. Nature of the experiment: ELISA, coated monkey CD33, antibody 100 nM. This is another data set of the same source.
The target in experiment [19] is T6, murine CD33 protein. Description: ELISA, coated murine CD33, antibody 0.01 nM.
Experiment [20] addresses T2, monkey CD33 protein. Description: ELISA, coated monkey CD33, antibody 0.01 nM. This is another data set of the same source.
Experiment [21] concerns the target T6, murine CD33 protein. Nature of the experiment: ELISA, coated murine CD33, antibody 0.001 nM.
Experiment [22] has as its target T2, monkey CD33 protein. Nature of the experiment: ELISA, coated monkey CD33, antibody 0.001 nM. This is another data set of the same source.
Experiment [23] addresses T6, murine CD33 protein. Nature of the experiment: ELISA, coated murine CD33, antibody 0.0001 nM.
In experiment [24] the target is T2, monkey CD33 protein. Nature of the experiment: ELISA, coated monkey CD33, antibody 0.0001 nM. This is another data set of the same source.

Sequence of human CD33-His (P20138 18-259 limits assumed): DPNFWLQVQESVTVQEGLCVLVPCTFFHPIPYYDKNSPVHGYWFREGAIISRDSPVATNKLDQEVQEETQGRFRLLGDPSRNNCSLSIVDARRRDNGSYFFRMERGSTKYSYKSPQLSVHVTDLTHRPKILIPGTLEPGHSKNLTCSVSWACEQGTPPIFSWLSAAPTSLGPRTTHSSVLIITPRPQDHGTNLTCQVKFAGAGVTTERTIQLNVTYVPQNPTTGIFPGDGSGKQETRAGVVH
Sequence of human CD33-V-his (P20138 other isoform, or with tags, fused parts or gaps limits assumed): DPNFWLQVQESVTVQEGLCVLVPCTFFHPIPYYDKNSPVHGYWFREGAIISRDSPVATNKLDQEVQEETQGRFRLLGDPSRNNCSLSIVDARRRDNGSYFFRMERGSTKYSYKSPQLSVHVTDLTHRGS

B1: S006-NB146-39 (Fc fusion)
chain: EVQLVESGGGLVQPGESLRLSCTAPGIILDYYPIGWFRQAPGKEREGVAFITNSDDSTIYTNYADSVKGRFTISREKNTVYLQMNSLKPEDTALYYCAARSTYIVGRNENALNSSDYDYWGQGTQVTVSS[letters of human IgG1 Fc with changes left out]
notes: also called S006-NB146-39 VHH-Fc
In the case of B1, the EC50 in experiment [1] stood at 5.92 nM. Further, the “Max MFI” value in [1] is 2180 MFI. Besides, the OD450 in the experiment with monkey CD33 protein [2] worked out at 1.95 OD450; with monkey CD33 protein [3], 2.89 OD450; in the experiment with monkey CD33 protein [4] it was 0.21 OD450; with monkey CD33 protein [5], 3.09 OD450; in the experiment with monkey CD33 protein [6] it was 0.07 OD450; with monkey CD33 protein [7], 0.06 OD450. This molecule registered an OD450 with monkey CD33 protein [8] of 0.06 OD450. Besides, the results for the Kd with human CD33-His and with monkey CD33 protein [9] were 0.165 nM and 0.118 nM, respectively. The results for the koff with human CD33-His and with monkey CD33 protein [9] were 2.95e-05 s⁻¹ and 6.98e-05 s⁻¹, respectively. Further, the kon with human CD33-His is 179000 M⁻¹ s⁻¹; in the experiment with monkey CD33 protein [9], 590000 M⁻¹ s⁻¹.

B2: S006-NB146-46 (Fc fusion)
chain: QLQLVESGGGLVQPGGSLRLSCTAPGIVLDYYPIGWFRQAPGKEREGVSFITNSDDSTIYTNYADSVKGRFTISREKNTVYLQMNSLKPEDTAVYYCAARSTYIVGRNENALNASDYDYWGQGTQVTVSS[letters of human IgG1 Fc with changes left out]
notes: also called S006-NB146-46 VHH-Fc
As to B2, in experiment [1], the EC50 amounted to 6.13 nM. Also, in experiment [1], the “Max MFI” value was 2150 MFI. Moreover, the OD450 was found to be 1.98 OD450 with monkey CD33 protein [2]; 2.93 OD450 with monkey CD33 protein [3]; 0.25 OD450 in the experiment with monkey CD33 protein [4]; 3 OD450 with monkey CD33 protein [5]; 0.08 OD450 with monkey CD33 protein [6]; 0.06 OD450 with monkey CD33 protein [7]. In the experiment with monkey CD33 protein [8], this molecule had an OD450 of 0.06 OD450. The Kd with human CD33-His stood at 0.171 nM; with monkey CD33 protein [9] it was 0.16 nM. Further, the koff came to 3.39e-05 s⁻¹ in the experiment with human CD33-His and 9.36e-05 s⁻¹ with monkey CD33 protein [9]. Also, the kon with human CD33-His is 198000 M⁻¹ s⁻¹; with monkey CD33 protein [9], 584000 M⁻¹ s⁻¹.

B3: S006-NB146-39-aH8 (Fc fusion)
chain: EVQLVESGGGLVQPGGSLRLSCAASGIILDYYPIGWFRQAPGKEREGVAFITNSDDSTIYTNYADSVKGRFTISRDKNSLYLQMNSLRAEDTAVYYCAARSTYIVGRNENALNSADYDYWGQGTMVTVSS[letters of human IgG1 Fc with changes left out]
notes: also called humanized VHH-Fc
On to B3, for which the binding result with murine CD33-His protein and in the experiment with human CD33-V-his was “no binding (tested: 100 nM)” in each case.

B4: S006-NB146-39-aH10 (Fc fusion)
chain: EVQLVESGGGLVQPGGSLRLSCTAPGIILDYYPIGWFRQAPGKEREGVAFITNSDDSTIYTNYADSVKGRFTISRDKNSLYLQMNSLRAEDTAVYYCAARSTYIVGRNENALNSADYDYWGQGTMVTVSS[letters of human IgG1 Fc with changes left out]
notes: also called humanized VHH-Fc
On to B4, for which the binding result in the experiment with murine CD33-His protein and with human CD33-V-his was “no binding (tested: 100 nM)” each time.

B5: S006-NB146-39-aH9 (Fc fusion)
chain: EVQLVESGGGLVQPGGSLRLSCAASGIILDYYPIGWFRQAPGKEREGVAFITNSDSSTIYTNYADSVKGRFTISRDKNSLYLQMNSLRAEDTAVYYCAARSTYIVGRNENALNSADYDYWGQGTMVTVSS[letters of human IgG1 Fc with changes left out]
notes: also called humanized VHH-Fc
For the molecule B5, the binding result in the experiment with murine CD33-His protein and with human CD33-V-his was “no binding (tested: 100 nM)” each time.

B6: S006-NB146-39-aH12 (Fc fusion)
chain: EVQLVESGGGLVQPGGSLRLSCAASGIILDYYPIGWFRQAPGKEREGVAFITNSDDSTIYTNYADSVKGRFTISREKNTLYLQMNSLRAEDTAVYYCAARSTYIVGRNENALNSADYDYWGQGTMVTVSS[letters of human IgG1 Fc with changes left out]
notes: also called humanized VHH-Fc
B6: the binding result with murine CD33-His protein and with human CD33-V-his was “no binding (tested: 100 nM)” throughout.

B7: S006-NB146-39-aH15 (Fc fusion)
chain: EVQLVESGGGLVQPGGSLRLSCAASGIILDYYPIGWFRQAPGKGREGVAFITNSDDSTIYTNYADSVKGRFTISRDKNSLYLQMNSLRAEDTAVYYCAARSTYIVGRNENALNSADYDYWGQGTMVTVSS[letters of human IgG1 Fc with changes left out]
notes: also called humanized VHH-Fc
For the molecule B7, the binding result with murine CD33-His protein and with human CD33-V-his was “no binding (tested: 100 nM)” throughout.

B8: S006-NB146-39-aH11 (Fc fusion)
chain: EVQLVESGGGLVQPGGSLRLSCTAPGIILDYYPIGWFRQAPGKEREGVAFITNSDSSTIYTNYADSVKGRFTISRDKNSLYLQMNSLRAEDTAVYYCAARSTYIVGRNENALNSADYDYWGQGTMVTVSS[letters of human IgG1 Fc with changes left out]
notes: also called humanized VHH-Fc
For B8, the binding result in the experiment with murine CD33-His protein and with human CD33-V-his was “no binding (tested: 100 nM)” in each case.

B9: S006-NB146-39-aH13 (Fc fusion)
chain: EVQLVESGGGLVQPGGSLRLSCAASGIILDYYPIGWFRQAPGKEREGVAFITNSDSSTIYTNYADSVKGRFTISREKNTLYLQMNSLRAEDTAVYYCAARSTYIVGRNENALNSADYDYWGQGTMVTVSS[letters of human IgG1 Fc with changes left out]
notes: also called humanized VHH-Fc
Take B9: the binding result with murine CD33-His protein and with human CD33-V-his was “no binding (tested: 100 nM)” each time.

B10: S006-NB146-181 (Fc fusion)
chain: QVQLVESGGGLVQAGGSLRLSCAASGSIFSMGWYRQAPGKQRELVAAIANGGTTTNYANSVKDRFTISRDNAKNTVYLQMNSLRPEDTAVYYCYAKRSWDSSSYWGQGTQVTVSS[letters of human IgG1 Fc with changes left out]
In experiment [10], B10 showed a concentration for a half-maximal effect (EC50) of 121 nM. Besides, the “Max MFI” value in experiment [10] stood at 2900 MFI. For the same molecule, the OD450 with murine CD33 protein [11] was found to be 0.06 OD450; in the experiment with monkey CD33 protein [12], 2.21 OD450; with murine CD33 protein [13] it was 0.06 OD450; with monkey CD33 protein [14], 2.33 OD450; in the experiment with murine CD33 protein [15], 0.05 OD450; with murine CD33 protein [16] it was 0.07 OD450. Further, the OD450 in the experiment with monkey CD33 protein [17] turned out to be 1.02 OD450; with monkey CD33 protein [18], 2.31 OD450; with murine CD33 protein [19] it was 0.05 OD450; with monkey CD33 protein [20] it was 0.26 OD450; in the experiment with murine CD33 protein [21] it was 0.06 OD450; in the experiment with monkey CD33 protein [22] it was 0.07 OD450. Also, the results for the OD450 with murine CD33 protein [23] and in the experiment with monkey CD33 protein [24] were 0.06 OD450 and 0.05 OD450, respectively. Further, binding in the experiment with monkey CD33 protein [9] was characterised by a dissociation constant (Kd) of 27.2 nM. In the experiment with monkey CD33 protein [9], this molecule yielded a koff of 0.00198 s⁻¹. In the experiment with monkey CD33 protein [9], this molecule registered an on-rate (kon) of 72800 M⁻¹ s⁻¹.
